Data reported in a collection of fitness landscapes (doi:10.1126/science.1257360).
This is one part of the list.

B1: PhoQ; a variant is named by its letters at X, in order, P23837 (parent)
chain: MKKLLRLFFPLSLRVRFLLATAAVVLVLSLAYGMVALIGYSVSFDKTTFRLLRGESNLFYTLAKWENNKLHVELPENIDKQSPTMTLIYDENGQLLWAQRDVPWLMKMIQPDWLKSNGFHEIEADVNDTSLLLSGDHSIQQQLQEVREDDDDAEMTHSVAVNVYPATSRMPKLTIVVVDTIPVELKSSYMVWSWFIYVLSANLLLVIPLLWVAAWWSLRPIEALAKEVRELEEHNRELLNPATTRELTSLVRNLNRLLKSERERYDKYRTTLTDLTHSLKTPLXXLQXXLRSLRSEKMSVSDAEPVMLEQISRISQQIGYYLHRASMRGGTLLSRELHPVAPLLDNLTSALNKVYQRKGVNISLDISPEISFVGEQNDFVEVMGNVLDNACKYCLEFVEISARQTDEHLYIVVEDDGPGIPLSKREVIFDRGQRVDTLRPGQGVGLAVAREITEQYEGKIVAGESMLGGARMEVIFGRQHSAPKDE

Variants of: B1
Test: enrichment ratio after two sorts for PhoP signalling (ratio (wild type AVST 3.29)); higher = more functional
Conditions: with PhoP (E. coli)

Row | Variant | enrichment ratio
1 | GLVH | ≤ 0.25
2 | TPNY | ≤ 0.25
3 | HFVG | ≤ 0.25
4 | APAY | ≤ 0.25
5 | AWLM | ≤ 0.25
6 | QCCN | ≤ 0.25
7 | VWMQ | ≤ 0.25
8 | QCAF | ≤ 0.25
9 | YQCG | ≤ 0.25
10 | TCHP | ≤ 0.25
11 | VLCL | 0.464
12 | YRNR | ≤ 0.25
13 | WSHM | ≤ 0.25
14 | IVYN | ≤ 0.25
15 | AHNN | ≤ 0.25
16 | RHRD | ≤ 0.25
17 | QQNM | 16.3
18 | DPRR | ≤ 0.25
19 | HHCS | ≤ 0.25
20 | IWGQ | ≤ 0.25
21 | SCQV | ≤ 0.25
22 | TKAL | 10.3
23 | MVRG | ≤ 0.25
24 | PVYQ | ≤ 0.25
25 | QDAT | ≤ 0.25

Row | Variant | enrichment ratio
26 | PGCD | ≤ 0.25
27 | RHAC | ≤ 0.25
28 | ENPY | ≤ 0.25
29 | QDSM | ≤ 0.25
30 | MCNT | ≤ 0.25
31 | RSAY | ≤ 0.25
32 | DFPY | ≤ 0.25
33 | LCHK | ≤ 0.25
34 | ADAS | ≤ 0.25
35 | DQRY | ≤ 0.25
36 | RNFD | ≤ 0.25
37 | ICRI | ≤ 0.25
38 | YFDD | ≤ 0.25
39 | SLVF | ≤ 0.25
40 | PGGA | ≤ 0.25
41 | TVIW | ≤ 0.25
42 | SDYC | ≤ 0.25
43 | PVSL | ≤ 0.25
44 | DVIS | ≤ 0.25
45 | NDHM | ≤ 0.25
46 | WFHS | ≤ 0.25
47 | IKNP | ≤ 0.25
48 | AHKT | ≤ 0.25
49 | PQHD | ≤ 0.25
50 | RNGN | ≤ 0.25

Row | Variant | enrichment ratio
51 | NAAM | ≤ 0.25
52 | NLQK | ≤ 0.25
53 | YHCD | ≤ 0.25
54 | ISCG | ≤ 0.25
55 | ENCA | ≤ 0.25
56 | YNAL | ≤ 0.25
57 | TIQP | ≤ 0.25
58 | ASMT | 12
59 | LLIS | ≤ 0.25
60 | GRGL | ≤ 0.25
61 | QIPC | ≤ 0.25
62 | TPCL | ≤ 0.25
63 | TWWP | ≤ 0.25
64 | WWSM | ≤ 0.25
65 | CYIL | ≤ 0.25
66 | REHM | ≤ 0.25
67 | VAAR | ≤ 0.25
68 | WHPQ | ≤ 0.25
69 | VLPA | ≤ 0.25
70 | HFIY | ≤ 0.25
71 | TQPT | ≤ 0.25
72 | IVLT | 0.33
73 | INAP | ≤ 0.25
74 | DWRY | ≤ 0.25
75 | VQYR | ≤ 0.25

Row | Variant | enrichment ratio
76 | GCGP | ≤ 0.25
77 | GKRL | ≤ 0.25
78 | VRIV | ≤ 0.25
79 | ICKL | ≤ 0.25
80 | TADQ | ≤ 0.25
81 | PNQH | ≤ 0.25
82 | HFYR | ≤ 0.25
83 | PWQF | ≤ 0.25
84 | MAKL | ≤ 0.25
85 | FQMV | 0.463
86 | SAHY | ≤ 0.25
87 | ETYA | ≤ 0.25
88 | GMKT | ≤ 0.25
89 | HFSN | ≤ 0.25
90 | VTGI | ≤ 0.25
91 | TAVK | ≤ 0.25
92 | LRID | ≤ 0.25
93 | IWSY | ≤ 0.25
94 | FDTR | ≤ 0.25
95 | WNCS | ≤ 0.25
96 | HLYL | ≤ 0.25
97 | LKGN | ≤ 0.25
98 | PGKQ | ≤ 0.25
99 | QQNP | ≤ 0.25
100 | GTGL | 1.73

Row | Variant | enrichment ratio
101 | HIMI | ≤ 0.25
102 | IWHT | ≤ 0.25
103 | MRIS | ≤ 0.25
104 | KRGI | ≤ 0.25
105 | KLKT | ≤ 0.25
106 | IEWR | ≤ 0.25
107 | PPCF | ≤ 0.25
108 | ATMV | 9.43
109 | QENS | ≤ 0.25
110 | NFNH | ≤ 0.25
111 | AHPI | ≤ 0.25
112 | INDV | ≤ 0.25
113 | NQCQ | ≤ 0.25
114 | MQRH | ≤ 0.25
115 | AEDY | ≤ 0.25
116 | MYMI | 0.465
117 | VFLI | ≤ 0.25
118 | GMGV | ≤ 0.25
119 | PGMT | ≤ 0.25
120 | RICT | ≤ 0.25
121 | VNLL | 10.2
122 | RGGS | ≤ 0.25
123 | MANW | ≤ 0.25
124 | HYCL | ≤ 0.25
125 | NMES | ≤ 0.25

Row | Variant | enrichment ratio
126 | LRTH | ≤ 0.25
127 | SRDH | ≤ 0.25
128 | RVNE | ≤ 0.25
129 | VMTE | ≤ 0.25
130 | KAAW | ≤ 0.25
131 | NERC | ≤ 0.25
132 | QQVN | ≤ 0.25
133 | SRED | ≤ 0.25
134 | KHDV | ≤ 0.25
135 | WNYV | ≤ 0.25
136 | SGLY | 8.86
137 | DLDV | ≤ 0.25
138 | HKEM | ≤ 0.25
139 | LWGR | ≤ 0.25
140 | QSNQ | 4.72
141 | FSTW | ≤ 0.25
142 | YASR | ≤ 0.25
143 | MAPL | ≤ 0.25
144 | KHWM | ≤ 0.25
145 | WAYF | ≤ 0.25
146 | MHHT | ≤ 0.25
147 | LIPP | ≤ 0.25
148 | REEG | ≤ 0.25
149 | FTVP | ≤ 0.25
150 | YIPF | ≤ 0.25

Row | Variant | enrichment ratio
151 | VMPL | ≤ 0.25
152 | AKQP | ≤ 0.25
153 | HQKA | ≤ 0.25
154 | WMPF | ≤ 0.25
155 | WWPT | ≤ 0.25
156 | KYWM | ≤ 0.25
157 | SHQE | ≤ 0.25
158 | FCSP | ≤ 0.25
159 | LNWW | ≤ 0.25
160 | VGYA | ≤ 0.25
161 | TMLD | ≤ 0.25
162 | MDLL | ≤ 0.25
163 | KEAW | ≤ 0.25
164 | PCHL | ≤ 0.25
165 | NFCV | ≤ 0.25
166 | GFPG | ≤ 0.25
167 | PMKI | ≤ 0.25
168 | HGYV | ≤ 0.25
169 | IFKF | ≤ 0.25
170 | DQNA | ≤ 0.25
171 | EVMP | ≤ 0.25
172 | DEAS | ≤ 0.25
173 | PDPY | ≤ 0.25
174 | NFDN | ≤ 0.25
175 | SCMK | 6.72

Row | Variant | enrichment ratio
176 | YFRD | ≤ 0.25
177 | TCNC | 14.3
178 | GKCP | ≤ 0.25
179 | QVGV | ≤ 0.25
180 | NVKS | ≤ 0.25
181 | TINP | 4.79
182 | TFVQ | ≤ 0.25
183 | TKIA | 2.15
184 | RCPW | ≤ 0.25
185 | KEGR | ≤ 0.25
186 | KITN | ≤ 0.25
187 | ECDT | ≤ 0.25
188 | CFSF | ≤ 0.25
189 | EVCV | ≤ 0.25
190 | VCKQ | ≤ 0.25
191 | RQSG | ≤ 0.25
192 | DTVY | ≤ 0.25
193 | IDPC | ≤ 0.25
194 | DLCY | ≤ 0.25
195 | PEDA | ≤ 0.25
